Some of the results follow.

The assay deals with PfHDP1 homeodomain (GST-tagged). Briefly: gcPBM binding intensity (ln(normalized median fluorescence intensity)); higher = stronger DNA binding. Put shortly:
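In this array assay, P. falciparum DNA-binding domains with a GST tag, expressed in E. coli, were applied for 1 h to primer-extended double-stranded 36-bp intergenic genomic probes and negative controls on an Agilent 4 × 180k array. Bound protein was visualised with Alexa488 anti-GST antibody at 488 nm. Binding intensity is the highest Masliner-normalised natural-log median intensity across replicate spots of either probe orientation.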
Regarding “ATTTTTATTTTCTTTACACACCACATAACTTTTTTT [CACACA_site7826]”, the “gcPBM binding intensity (ln)” value is 7.03.

As for “ACTTTTTAATATTTTAGTACACAGTAATTCTTACTA [XGTACX_site1425]”, the “gcPBM binding intensity (ln)” value came out at 6.65.

On to “ATATATATATATATATGTACATATATCTACATATAT [XGTACX_site7588]”, for which the “gcPBM binding intensity (ln)” value worked out at 9.2.

Regarding “TATGTCTTGTTGTAAAATATTTATTAACAAATTGGC [CACACA_negctrl_site1452]”, the “gcPBM binding intensity (ln)” value worked out at 6.44.

As for “TATATATATATAAGTGCACACTGAACCAAGAAAATT [CACACA_site5637]”, the “gcPBM binding intensity (ln)” value was 9.8.

Take “TTAAAGAATATTTTCACACATAAAAATTTTAATTTA [CACACA_site4290]”: the “gcPBM binding intensity (ln)” value amounted to 5.93.

With “TTATAAAACACAAAATGTACAAAAAATTATAATTAA [XGTACX_site6859]”, the “gcPBM binding intensity (ln)” value was found to be 6.67.

With “AATATTATTATCTTACCACACACAATCTACGAAAAG [CACACA_site8006]”, the “gcPBM binding intensity (ln)” value was determined as 6.62.

“TATCATATAAAACATGCACACATATGTACTCTTATA [CACACA_site9249]”: the “gcPBM binding intensity (ln)” value turned out to be 9.14.

“CGTTCTATTTAGATATGTACTTAAATATATGATCAT [XGTACX_site2936]”: the “gcPBM binding intensity (ln)” value was found to be 6.39.

For “AAAAAATAAGATTGTACACACATAAATTCTTTGTCA [CACACA_site2089]”, the “gcPBM binding intensity (ln)” value was found to be 6.27.

In the case of “TTTTTTTTTTTTTAAATAATCATACATGTGAAATTG [GTGCAC_negctrl_site328]”, the “gcPBM binding intensity (ln)” value was found to be 6.15.

In the case of “TTAATAAAAATATATCCACACACATATATATATATG [CACACA_site8091]”, the “gcPBM binding intensity (ln)” value is 6.73.

For “ATCATTTATTTTTTAAAAGTATATATATATATATAT [CACACA_negctrl_site220]”, the “gcPBM binding intensity (ln)” value was 9.37.

On to “TTTTGACATTAACTTAAAAAATAAATAATTATAAAA [XGTACX_negctrl_site552]”, for which the “gcPBM binding intensity (ln)” value was found to be 6.17.

Regarding “ACATATTATAACATATGTACATATATATATATATAA [XGTACX_site5567]”, the “gcPBM binding intensity (ln)” value came out at 6.95.

On to “AAATATAAGTTTTATTGTACATTATATAGCATATTT [XGTACX_site6618]”, for which the “gcPBM binding intensity (ln)” value turned out to be 6.39.

In the case of “AATGTGTTCATATATGCACACGCATATATATTATTG [CACACA_site9274]”, the “gcPBM binding intensity (ln)” value was determined as 9.95.

With “TATATAAATGGACACACACACACCTTATAATTATTA [CACACA_site6093]”, the “gcPBM binding intensity (ln)” value is 6.85.

Take “TTTATAAATTGACACACACACATGTGAACATAAAAA [CACACA_site6978]”: the “gcPBM binding intensity (ln)” value was 6.65.

On to “GCCTATATGTTTAGTTGTACTCCTAATATTATTTGT [XGTACX_site6060]”, for which the “gcPBM binding intensity (ln)” value turned out to be 6.91.

Turning to “CAAATTATTTCGAGGTGTACTTTTTTATATTATATT [XGTACX_site8309]”, the “gcPBM binding intensity (ln)” value was found to be 6.36.

Take “CCTAATTTTTTTAGTTGTACTTTTTTTTTTTTTTAT [XGTACX_site7948]”: the “gcPBM binding intensity (ln)” value was 6.24.

Turning to “CACGAAAAAAAAAAATGTACATAAAAATATGATACA [XGTACX_site2536]”, the “gcPBM binding intensity (ln)” value is 6.22.

Take “TCTCATTTCAACAACAGTACATATCTATCTGTGTAT [XGTACX_site6897]”: the “gcPBM binding intensity (ln)” value stood at 6.41.

Turning to “AAAAAAAAAAAAAAAAAAAAAGGACGGATGGATGGA [GTGCAC_negctrl_site527]”, the “gcPBM binding intensity (ln)” value was 6.88.

As for “GAAAGAGAAATATATACACACATATTTATATTTTTA [CACACA_site2066]”, the “gcPBM binding intensity (ln)” value came out at 6.23.

In the case of “ATACGTATATAATATACATGCATATATAGCACATAC [TGCATGCA_site376]”, the “gcPBM binding intensity (ln)” value was determined as 7.28.

In the case of “ATAAAAAAAAAAAAAAATGAAGCATCACCGTGTAAT [XGTACX_negctrl_site288]”, the “gcPBM binding intensity (ln)” value worked out at 6.39.

Consider “AATTATATATTATCATGTACAAATATAGTAATACAA [XGTACX_site6845]”, for which the “gcPBM binding intensity (ln)” value turned out to be 6.37.

For the sequence “AAATTATAAGTAAAAAGTACTTAATATATAATAAAC [XGTACX_site6065]”, the “gcPBM binding intensity (ln)” value came out at 6.68.

In the case of “CTTATACTTCTACATCGTACAAAAGATGGTATAATT [XGTACX_site2698]”, the “gcPBM binding intensity (ln)” value is 6.23.

On to “AAAAAAAAAAAAAATAGTACGTAACTATAATTTCCT [XGTACX_site2457]”, for which the “gcPBM binding intensity (ln)” value worked out at 6.36.

Take TATAATTTTTTTTGGGTGCTTGGGTAAATTTTATTA: the “gcPBM binding intensity (ln)” value was 7.1.

For “TAACTTAAATAATACATACACACATGTACATACAGA [CACACA_site1594]”, the “gcPBM binding intensity (ln)” value amounted to 6.45.

For “ATTGTGGCAATATATTGTACATGTAATATAAATATA [XGTACX_site5415]”, the “gcPBM binding intensity (ln)” value was found to be 6.66.

In the case of “AATTAAAATATATATATACACACGTAATTATATATA [CACACA_site3819]”, the “gcPBM binding intensity (ln)” value is 6.39.

Regarding “AAAAAAAAAAAAATAGGTACGTAAATATTTCTTTAA [XGTACX_site6423]”, the “gcPBM binding intensity (ln)” value turned out to be 6.15.

As to “TCTTTTAGTTTTATCCACATAATAAAAAGCAAAAAA [GTGCAC_negctrl_site368]”, the “gcPBM binding intensity (ln)” value was 6.28.

As for “TATTCTTCAATTTAAAGTACAAAAATTACTATACTT [XGTACX_site6599]”, the “gcPBM binding intensity (ln)” value worked out at 6.17.

Regarding “AAAAAAAAAAAAAAGAGTACTTTTTTCTCATTACTA [XGTACX_site8353]”, the “gcPBM binding intensity (ln)” value is 6.14.

Consider “AAATATATATGAAGATGTACATATATATATGTAAAT [XGTACX_site4039]”, for which the “gcPBM binding intensity (ln)” value turned out to be 6.45.

As to “TAACACTTATAAAAAAGTACTGATGAAATAATACTA [XGTACX_site7305]”, the “gcPBM binding intensity (ln)” value stood at 5.91.

For “AAAAATTCCAGACACACACACACATATAAATAAATA [CACACA_site1232]”, the “gcPBM binding intensity (ln)” value was determined as 6.73.

These data come from the supplement of paper PMC11417369.
